The campaign covered roughly 310,000 compounds. About 14,000 (4.5%) showed an effect of 50% or more. The effect is printed as a negative number. Some of the results follow.
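Also: peak tail current of the secondary pulse compared with the same well before compound.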

For this test, the target named is human ether-à-go-go-related gene (hERG) potassium channel (human, UniProt Q12809). The test can be described thus: primary screen, population patch clamp on CHO cells stably expressing hERG.
human ether-à-go-go-related gene (hERG) potassium channel, sequence (Q12809 whole entry, looked up): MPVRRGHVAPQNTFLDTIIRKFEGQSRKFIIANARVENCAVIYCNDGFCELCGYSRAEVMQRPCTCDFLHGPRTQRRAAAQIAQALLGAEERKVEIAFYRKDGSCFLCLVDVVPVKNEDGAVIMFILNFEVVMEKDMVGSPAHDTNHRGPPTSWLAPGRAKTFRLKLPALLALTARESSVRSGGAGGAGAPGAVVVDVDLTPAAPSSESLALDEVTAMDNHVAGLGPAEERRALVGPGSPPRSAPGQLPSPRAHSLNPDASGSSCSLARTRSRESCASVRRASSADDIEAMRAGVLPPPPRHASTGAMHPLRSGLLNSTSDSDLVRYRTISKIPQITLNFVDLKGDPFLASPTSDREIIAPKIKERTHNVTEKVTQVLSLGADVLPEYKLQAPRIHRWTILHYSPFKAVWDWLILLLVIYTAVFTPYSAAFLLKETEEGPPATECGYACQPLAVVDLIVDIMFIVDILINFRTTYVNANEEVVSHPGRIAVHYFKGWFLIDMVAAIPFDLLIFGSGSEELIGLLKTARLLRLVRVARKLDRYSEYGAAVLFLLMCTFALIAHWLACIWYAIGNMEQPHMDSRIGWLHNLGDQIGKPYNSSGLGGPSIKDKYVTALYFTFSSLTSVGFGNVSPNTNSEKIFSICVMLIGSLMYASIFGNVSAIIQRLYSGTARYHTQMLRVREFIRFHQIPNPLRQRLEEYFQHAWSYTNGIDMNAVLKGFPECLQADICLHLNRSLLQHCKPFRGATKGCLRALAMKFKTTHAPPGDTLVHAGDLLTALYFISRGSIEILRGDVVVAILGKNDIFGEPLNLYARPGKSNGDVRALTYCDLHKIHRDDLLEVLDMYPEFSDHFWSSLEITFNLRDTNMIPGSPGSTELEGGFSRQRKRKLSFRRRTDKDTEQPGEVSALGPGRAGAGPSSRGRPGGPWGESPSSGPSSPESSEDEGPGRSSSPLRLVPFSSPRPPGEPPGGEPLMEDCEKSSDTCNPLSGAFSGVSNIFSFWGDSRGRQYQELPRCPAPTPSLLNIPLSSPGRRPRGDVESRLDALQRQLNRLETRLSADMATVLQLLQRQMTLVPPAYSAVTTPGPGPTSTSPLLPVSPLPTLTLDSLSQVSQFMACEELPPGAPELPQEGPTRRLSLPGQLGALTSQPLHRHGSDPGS
Regarding `COc1cccc(Nc2ncccc2C(=O)O)c1`, the “hERG current change (%, negative = inhibition) at 10uM” value is recorded as 9.1%.
`COc1cc(OC)c(/C=N/n2c(C3CCCCC3)n[nH]c2=S)c(OC)c1`: the “hERG current change (%, negative = inhibition) at 10uM” value amounted to 22.6%.
In the case of `O=C(N/N=C/c1cccnc1)c1cccc(S(=O)(=O)Nc2cccc(Cl)c2)c1`, the “hERG current change (%, negative = inhibition) at 10uM” value is 10.9%.
Turning to `COC(=O)c1ccc(CNC(=O)COC(=O)CCC2CCCC2)cc1`, the “hERG current change (%, negative = inhibition) at 10uM” value worked out at 7.42%.
On to `Cc1ccc(S(=O)(=O)N2CCCC2C(=O)NCc2ccncc2)cc1` (centres unmarked), for which the “hERG current change (%, negative = inhibition) at 10uM” value is given as 7.55%.
In the case of `CC(C)(C)c1nc2c(Br)cc(Br)cc2c(=O)o1`, the “hERG current change (%, negative = inhibition) at 10uM” value came out at 18.9%.
On to `Cc1c(NC(=O)CC2NC(=O)NC2=O)c(=O)n(-c2ccccc2)n1C` (centres unmarked), for which the “hERG current change (%, negative = inhibition) at 10uM” value turned out to be 1.27%.
As for `CCOC(=O)N1CCC(N2Cc3cccc(C(=O)O)c3C2=O)CC1`, the figure is -23.6%.
As for `COc1cccc(-c2nnc(SCC(=O)NCc3ccc4c(c3)OCO4)n2Cc2ccco2)c1`, the “hERG current change (%, negative = inhibition) at 10uM” value is -49.7%.
As for `CCn1c2ccccc2c2cc(NC(=O)c3cc(OC)c(OC)c(OC)c3)ccc21`, the “hERG current change (%, negative = inhibition) at 10uM” value turned out to be 4.1%.
Consider `CC(=O)Nc1cccc(NC(=O)c2ccc3[nH]c(C)c(C)c3c2)c1`, for which the “hERG current change (%, negative = inhibition) at 10uM” value was determined as 18.1%.
Regarding `O=C(COC(=O)c1ccc(S(=O)(=O)C(F)F)cc1)Nc1cccnc1Cl`, the “hERG current change (%, negative = inhibition) at 10uM” value is -5.46%.
`CCn1c(/N=C/c2ccccc2NS(=O)(=O)c2ccc(C)cc2)nc2ccccc21`: the “hERG current change (%, negative = inhibition) at 10uM” value was -19.8%.
As for `O=C(Cc1cccc2ccccc12)N1CCCc2ccccc21`, the figure is -7.17%; as for `COc1ccc(/C=C/C(O)=C2/C(=O)N(C)C3(C)CC2c2ccccc2O3)cc1` (centres unmarked), -13.4%; as for `O=C(CCC1CC(=O)Nc2ccccc21)NCc1ccccc1` (centres unmarked), 2.63%.
For `CCOC(=O)CN1CC23C=CC(O2)C(C(=O)NCc2ccc(C)cc2)C3C1=O` (centres unmarked), the “hERG current change (%, negative = inhibition) at 10uM” value is listed as -2.67%.
The figure for `COc1cc(SC)ccc1C(=O)Nc1ccc(Cl)cn1` is 28.4%; for `O=C1c2ccccc2C(=O)N1CCSC(=S)N1CCOCC1` it is 10.9%.
`NS(=O)(=O)c1ccc(NC(=O)c2ccc3c(c2)CCCC3)cc1`: the “hERG current change (%, negative = inhibition) at 10uM” value is 23.5%.
As to `Cc1cc(C)n(CC(=O)N/N=C/c2cc([N+](=O)[O-])ccc2O)n1`, the “hERG current change (%, negative = inhibition) at 10uM” value is -11.7%.
Regarding `Cc1ccc(OCCNC(=O)c2cc(C(=O)NCCOc3ccc(C)cc3)cc([N+](=O)[O-])c2)cc1`, the “hERG current change (%, negative = inhibition) at 10uM” value is listed as -7.93%.
Regarding `Cc1nc(-c2ccc(Cl)cc2)sc1C1(C)CC(c2ccc(Br)cc2)=NO1` (centres unmarked), the “hERG current change (%, negative = inhibition) at 10uM” value is -11%.
As to `Cc1c(Cl)cn2c(=O)cc(CN3CCN(c4ccccc4)CC3)nc2c1Cl`, the “hERG current change (%, negative = inhibition) at 10uM” value is on record as -20.9%.
As to `COC(=O)C1=C(N)Oc2cc(N(C)C)ccc2C1c1ccccc1OC` (centres unmarked), the “hERG current change (%, negative = inhibition) at 10uM” value is recorded as -84.3%.
As to `CCOc1ccc(CCNC(=O)CS(=O)(=O)Cc2nc(-c3ccccc3F)oc2C)cc1`, the “hERG current change (%, negative = inhibition) at 10uM” value worked out at 3.08%.
Take `CCOC(=O)N=S(=O)(Oc1ccc([N+](=O)[O-])cc1)c1ccc(Cl)cc1` (centres unmarked): the “hERG current change (%, negative = inhibition) at 10uM” value is -32.6%.
As for `O=C(NNc1cccc(Cl)n1)c1ccc(Cl)nc1`, the “hERG current change (%, negative = inhibition) at 10uM” value is on record as 4.92%.
The figure for `Cc1c(C(=O)Nc2ccccc2)csc1-c1ccccc1` is 5.68%; for `N#C/C(=C/c1ccc(N2CCOCC2)o1)c1nc2ccccc2[nH]1` it is -14.1%; for `O=C(c1ccc2c(=O)n(C3CCCC3)c(=S)[nH]c2c1)N1CCCCCC1` it is -27.6%.
As for `CS(=O)(=O)N(CC(=O)NCCC1=CCCCC1)c1cccc([N+](=O)[O-])c1`, the “hERG current change (%, negative = inhibition) at 10uM” value was -32.4%.
With `Cc1oc(-c2ccccc2F)nc1CS(=O)CC(=O)N1CCC2(CC1)OCCO2` (centres unmarked), the “hERG current change (%, negative = inhibition) at 10uM” value was determined as 5.23%.
On to `Cc1ccc(C(=O)OCc2nnc(-c3ccccc3)o2)o1`, for which the “hERG current change (%, negative = inhibition) at 10uM” value was -9.05%.
As for `Cc1cccc(Nc2cc(C)c3c(O)cccc3n2)c1C`, the “hERG current change (%, negative = inhibition) at 10uM” value was -9.3%.
For the compound `C=CCNc1oc(C2CCCC2)nc1C#N`, the “hERG current change (%, negative = inhibition) at 10uM” value came out at 13.5%.
For the compound `COc1ccc(CN2CC(=O)N(c3cc(Cl)ccc3OC)C2=S)cc1OC`, the “hERG current change (%, negative = inhibition) at 10uM” value was found to be 6.76%.
Turning to `CN(CCO)c1nc2c(c(=O)n(Cc3ccc(Cl)cc3)c(=O)n2C)n1C`, the “hERG current change (%, negative = inhibition) at 10uM” value was determined as 3.79%.
As for `CN1CCN(NC(=O)c2ccc(Cl)s2)CC1`, the “hERG current change (%, negative = inhibition) at 10uM” value was 13.7%.
With `COC(=O)C(C(=O)Nc1cc(C)on1)C1CCCCCC1` (centres unmarked), the “hERG current change (%, negative = inhibition) at 10uM” value came to 6.48%.
In the case of `CCOC(=O)CSc1ccc2nnc(CCNS(=O)(=O)c3ccccc3)n2n1`, the “hERG current change (%, negative = inhibition) at 10uM” value came to 16.5%.
As for `O=c1oc(CCO)cc2ccc(C#Cc3ccsc3)cc12`, the “hERG current change (%, negative = inhibition) at 10uM” value is listed as 15.8%.
The figure for `COc1ccc(S(=O)(=O)Nc2c(NC3CCCCC3)c3ccccc3oc2=O)cc1` is -45.2%; for `COc1c(F)c(F)c(C(=O)Nc2ccc3oc(-c4ccncc4)nc3c2)c(F)c1F` it is 12.4%.

Values taken from article PMC4336329 (PLoS ONE, 2015).
